In all, about 33,000 sequences were measured (“E-score (-0.5 to 0.5)”: median about -0.035, highest 2% from about 0.34 on). The list shows a part of the results.
Each sequence was assayed against T1, Mot3 (UniProt P54785) (assay: PBM E-score (8-mer binding enrichment) (E-score (-0.5 to 0.5)); higher = stronger / more preferred TF binding; most listed sequences are background and not binding sites). Conditions: protein concentration: 200 nM; construct: GST-full length.
T1 sequence: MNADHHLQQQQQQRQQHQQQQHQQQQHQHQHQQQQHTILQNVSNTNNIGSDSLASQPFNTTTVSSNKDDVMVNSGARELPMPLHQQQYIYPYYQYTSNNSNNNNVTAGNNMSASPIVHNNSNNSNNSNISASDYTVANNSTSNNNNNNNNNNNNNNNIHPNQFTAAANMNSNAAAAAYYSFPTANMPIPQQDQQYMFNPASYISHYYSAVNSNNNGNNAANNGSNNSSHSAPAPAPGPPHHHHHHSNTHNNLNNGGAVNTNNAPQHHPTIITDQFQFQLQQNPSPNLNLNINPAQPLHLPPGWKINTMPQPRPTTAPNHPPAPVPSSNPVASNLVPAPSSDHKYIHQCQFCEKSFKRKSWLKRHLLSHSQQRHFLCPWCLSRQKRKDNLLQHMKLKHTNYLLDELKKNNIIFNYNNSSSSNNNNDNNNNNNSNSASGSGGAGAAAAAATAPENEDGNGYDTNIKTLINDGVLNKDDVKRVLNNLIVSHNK
Method: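 Universal 'all 10-mer' protein binding microarrays (Agilent AMADID 015681) probed with GST-tagged S. cerevisiae TFs (full-length or DBD) made by in vitro transcription/translation (PURExpress), about 100-200 nM. Bound TF was detected with fluorescent anti-GST. Each ungapped 8-mer (which stands for itself and its reverse complement) is scored by the PBM enrichment score (E-score), a modified Wilcoxon-Mann-Whitney statistic from -0.5 to +0.5, computed with the Universal PBM Analysis Suite. Scale: above 0.35 generally sequence-specific binding.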

| Sequence | PBM E-score |
| --- | --- |
| CAGTTGGG | -0.163 |
| ATAATCGA | -0.0585 |
| AGAGTGGG | -0.334 |
| ACTTCCGC | -0.226 |
| CGCTGGAC | -0.111 |
| AGTTTCAC | -0.0317 |
| CGGAGGGC | -0.229 |
| CTTCAATC | -0.141 |
| ACATTAAT | 0.218 |
| CATTGCAC | 0.142 |
| CAATTCCC | 0.0527 |
| TGCGTCAA | 0.0967 |
| TCCGACGA | 0.0283 |
| GATTGTCA | -0.019 |
| ATAACCCA | 0.0362 |
| AACCTAGC | 0.06 |
| AGAGAGAG | -0.326 |
| CCGTTGGA | -0.319 |
| ATTGAGCA | -0.104 |
| AAGCTGTA | 0.0641 |
| AGAACCCT | -0.329 |
| CTCCTAGA | -0.21 |
| CAAATAGA | -0.0672 |
| GTACAAGA | 0.252 |
| AGCTGTTA | 0.0622 |

| Sequence | PBM E-score |
| --- | --- |
| ACCCTCGA | -0.134 |
| AAAATGAC | 0.00342 |
| GTGCAAAA | 0.132 |
| GAACCACC | -0.0832 |
| AGTCAGCG | 0.0306 |
| ATCCAGAG | -0.128 |
| ACTGCTGC | -0.23 |
| GTCGGAGA | -0.0601 |
| CTTGACGC | 0.0474 |
| TCCCCTAA | -0.214 |
| TCGCAAGA | -0.161 |
| CTTTTGCA | 0.143 |
| CACCCAAA | -0.0724 |
| ACCAATAA | -0.00489 |
| CTGCGTAA | 0.302 |
| TCCAGGAA | 0.316 |
| CCATAGGA | -0.101 |
| AAATTCAG | -0.0726 |
| AGCCGAAT | -0.166 |
| AACGCTGG | -0.181 |
| ACGTATTC | 0.182 |
| AGGTACGC | 0.444 |
| CCTTATCG | 0.221 |
| GCTTCGCC | -0.263 |
| TACGTACA | 0.331 |

| Sequence | PBM E-score |
| --- | --- |
| AAGTCAGG | -0.0737 |
| ACTTGCGG | -0.136 |
| ACCAGCTG | -0.0736 |
| AAGATAGA | 0.034 |
| CAGGTATA | 0.0933 |
| GGCCCCAA | -0.119 |
| CGCTAGGC | -0.0267 |
| CATATCAA | 0.0245 |
| GCTAGCCC | -0.29 |
| TCGACAAA | 0.106 |
| ATTTTCAG | 0.071 |
| GGTAAGAA | 0.0322 |
| ATCCTCTA | 0.119 |
| AACCGAGA | -0.0641 |
| AGTAATGC | 0.174 |
| CTCCCCAC | -0.182 |
| ATTCGTAG | 0.0879 |
| CGAGGCTC | -0.266 |
| CACGCGGG | 0.176 |
| CTAGCGGA | -0.00619 |
| GTAAACCA | 0.0644 |
| GGATATTA | 0.151 |
| ACCTTACG | 0.0787 |
| AGATGCAT | -0.258 |
| CAACTCAG | -0.0909 |

| Sequence | PBM E-score |
| --- | --- |
| ATGGCTAG | -0.0925 |
| AACGTCGG | -0.122 |
| ATAGCTTA | 0.0449 |
| CATGATGC | -0.108 |
| CCGTGCGC | -0.0705 |
| AGGAGACC | -0.21 |
| CGTGTGCC | 0.23 |
| ATGGCGCG | -0.00066 |
| GCAGCCCC | -0.239 |
| CTTCTGTA | 0.132 |
| CAGTTTCG | -0.34 |
| GGTCCGAC | -0.298 |
| AATGGAGC | -0.0694 |
| GGGTTAAA | 0.0824 |
| AACTTCCC | -0.18 |
| GCGACCGA | -0.00598 |
| ATTTTTCA | -0.0862 |
| AGAAGAGA | -0.102 |
| AAGAAGTC | -0.0398 |
| CATGCGCG | -0.0181 |
| ATCGATCC | -0.161 |
| CTACGAGA | -0.0304 |
| ATGCTTGG | -0.0595 |
| TAACCGCA | -0.0584 |
| CGATCAAA | -0.286 |

| Sequence | PBM E-score |
| --- | --- |
| AGGAATTA | 0.167 |
| CCTCCCCG | -0.125 |
| CATAGCGG | -0.144 |
| ATTTCCTC | -0.0476 |
| AACTCGTA | 0.0061 |
| CGCTCTGC | -0.0977 |
| CGAGCAGA | -0.218 |
| CGAGAAAG | -0.0244 |
| AAGTTTGC | 0.194 |
| ATCATGGA | -0.335 |
| GCCGCGGC | -0.194 |
| AACGCACA | 0.204 |
| TCAAGACA | -0.0248 |
| AGTTTGGC | -0.0829 |
| AATAAAAG | 0.116 |
| CCAAGTCA | -0.216 |
| CCTGCTCC | 0.12 |
| AATCATGA | 0.04 |
| AAAAACTT | 0.185 |
| CGGGCCCC | -0.199 |
| GGTGACAC | -0.238 |
| AGGCGCCA | 0.183 |
| CCGAGGGA | -0.312 |
| CCAGACCC | -0.284 |
| ACCAGATG | -0.0432 |

| Sequence | PBM E-score |
| --- | --- |
| CAGATTCG | 0.0317 |
| TCGCACGA | -0.141 |
| GGGACTCA | -0.371 |
| AAGCAAAA | 0.0833 |
| CACACGGG | 0.232 |
| GCTTCATA | -0.0945 |
| CAAATACA | 0.251 |
| TAGAGAAA | -0.0644 |
| GCGATAGC | -0.0697 |
| CTAATTTC | 0.035 |
| CTGTGGGA | -0.103 |
| CAAACAGG | 0.231 |
| CAGCGGGC | -0.233 |
| CTCGAAAC | -0.176 |
| AATACAAG | 0.313 |
| CAGCTCCA | -0.155 |
| CCGCCCCC | -0.265 |
| CGCGATTC | -0.127 |
| AGATCACC | -0.0505 |
| ACCGCATC | -0.286 |
| CGAATCAG | -0.0911 |
| TACCGGGA | -0.00163 |
| AGTACAGA | -0.0538 |
| AACATTAA | 0.186 |
| ACACTCGT | -0.0339 |

| Sequence | PBM E-score |
| --- | --- |
| CTCATCTA | -0.243 |
| AGTCCGAG | -0.063 |
| ACAACCAT | 0.241 |
| AGCTCACC | -0.249 |
| TACTACTA | 0.097 |
| CCACTGAG | -0.135 |
| GATCCAAA | 0.0177 |
| AGCACTGG | -0.15 |
| CCACCCGC | -0.155 |
| ACACCACT | -0.00421 |
| GTTTGGGA | -0.0644 |
| AACAAGCT | 0.177 |
| CAAATTCA | -0.0972 |
| AATGTCCA | -0.0949 |
| ATGGCAAT | -0.0216 |
| CTAGCTAC | -0.0866 |
| GACCGGGA | -0.271 |
| GATTTACC | 0.0796 |
| GTAATTGA | 0.277 |
| GAGTTATC | -0.204 |
| CACCTTTA | 0.105 |
| AGTGTGTA | 0.247 |

— the supplement of paper PMC3334620
